The assay has as its system Normal C57BL/6J mice. Put plainly: Escalation of cocaine intake, long (6 hrs) access cocaine self-administration. Particulars: ICV injection before the self-administration session during escalation phase; GM-6001 0.4 μg/mouse; differs from controls on day 7 and 8.

Regarding Ilomastat [GM6001], the “escalation of cocaine intake (first hour of the 6 hours of self-administration)” value was “prevented escalation of cocaine intake”.
In the case of `CNC(=O)[C@H](Cc1c[nH]c2ccccc12)NC(=O)[C@H](CC(C)C)NC(=O)OC(C)(C)C` [GM(−)] it was “readily escalated their cocaine intake”.
